In PubChem BioAssay (NCI):
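How tested: cells in 96-well plates exposed to compound for 48 hours at five concentrations. Here, GI50 denotes the concentration required for 50% inhibition of growth. TGI is the concentration that stops growth completely.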

Tested on: NCI-H322M lung
Experiment: growth of human tumour cells (NCI), 48 h

Row | Compound | TGI [µM] | GI50 [µM]
1 | COc1cc(/C=C2\NC(=O)N(/C=C3\C(=O)Oc4ccccc4C3=O)C2=O)ccc1O | > 100 | 
2 | CC(=O)Nc1ccc(/C=c2\sc3nnc(/C=C/c4ccccc4)n3c2=O)cc1 | > 50 | 
3 | C=C1CC(OC)(C(O)C(=O)N[C@H]2OCO[C@H]3C2O[C@H](C[C@@H](CO)OC)C(C)(C)C3OC)O[C@H](C)[C@@H]1C (some centres not stated) | < 0.00932 | 
4 | O=S(=O)(Nc1ccccc1S(=O)(=O)c1ccccc1)c1ccccc1 | > 100 | 
5 | Cc1cc(S(=O)(=O)Nc2nc(N)n(C)n2)c(S)cc1Cl | > 10 | 
6 | CC1C(c2ccccc2O)c2cc3c(cc2OC1N1CCCC1)OCO3 (configuration not stated) | > 100 | 
7 | O=C(O)/C(=C\c1ccccc1)Cc1ccccc1 | > 100 | 
8 | Cc1c2n(c3ccccc13)CC1C2N(C)OC1(C)C (configuration not stated) | > 100 | 
9 | Cc1ccnc2c1NC(=O)c1cccnc1N2C1CC1 | > 100 | > 100
10 | Cc1[nH]n(-c2ccccc2)c(=S)c1C(=O)c1ccccc1 | > 100 | 
11 | CC[C@H](CCCCC1CC[C@@H]2CC(=O)C[C@H]12)OC (some centres not stated) | > 100 | 
